# Assay results taken from the RNAGym collection of RNA variant scans (doi:10.7554/elife.90254).
# Read counts are not given, so values of variants with three or more changes are uncertain.
# B1: LINE1-mini (parent)
# chain: GGCAGAGCUCAACACAGCGUGGCAAAGUGGCUGUGGCUAGACUGCC
# Variants of: B1
# Assay: self-cleavage, relative activity (ratio to wild type); higher = more cleavage; in vitro, sequencing; the parent is a self-cleaving ribozyme
row,Variant,self-cleavage
1,C10A A24C A41U C45A,0
2,C10A A14C U28G C46A,0.01
3,U9C U20C G33A,0.01
4,C10A A14U G22A G30U,0.35
5,U9G C15A A16U,0.04
6,C10A A14U A26U G27A,0.1
7,U9G G19U U20G C45U,0.09
8,U9C G35U U38A,0.03
9,U9G G19U U20G G35U,0.06
10,U9G C13A A14U U43A,0.01
11,C10A A16C U28A C31G U34G G35U,0
12,U9G G21C C23A,0.04
13,U9C C15U G19C G33C A41G G44U C45G,0
14,U9G U28G G29C C42G,0.01
15,U9C C18U G21C G36A,0.08
16,U9C G29A G44U,0.02
17,U9G G21U G27A,0.04
18,U9C G27U G35U,0.02
19,U9G G17C G36U,0.02
20,U9G A16C G35U A41U,0.02
21,U9G A14C G21C,0.03
22,C10A A14U G29C,0.01
23,C10A A11C C15U U38G,0.01
24,C10A C13A U28A G30U U38A U43A,0.03

row,Variant,self-cleavage
1,C10A C15U C45U,0.08
2,C10A A11C G29U U34C,0.02
3,C10A C13A C23G,0.02
4,U9G U32C G44A,0.08
5,C10A C13U A24G G36U A41C,0.02
6,C10A C18G C37G,0.02
7,C10A C18G C42A,0.04
8,U9G C18G U20C A25C G27A,0.16
9,U9G G21U U34C,0.09
10,C10A A14U C15A A26U U38G,0
11,C10A A12G A16C C45U,0.01
12,C10A A16U G40A C46A,0.1
13,U9G A14C G40U,0.02
14,U9C G17U U28C A41G G44A,0.01
15,C10A A16U G17C G22U C37G A41G,0
16,U9G G22A U28A,0.04
17,U9G G17U C31G A41U,0.08
18,C10A A16G U32C C42U G44A,0.01
19,U9C G19U A24C,0.21
20,U9G C18A G40C,0
21,U9G G19U G29A,0.04
22,U9G C31U G35U,0.02
23,C10A A12C U43G G44A C45A,0
24,U9C G36U U38G,0.01

row,Variant,self-cleavage
1,U9G A14U A25G G44C,0.04
2,U9G C10U G29A,0.07
3,C10A A12G G22C G40A,0
4,C10A A12G G30U,0
5,U9G G30U C31U U32A,0.02
6,C10A C13G C18A G30A G40A,0.01
7,U9C C15U C45G,0.02
8,U9G G17A G21A U34A C42G,0.07
9,C10A A12G C13U C18U,0.04
10,C10A A12C G30A A39C,0
11,C10A C15G C42U,0.01
12,U9G A11G C13G,0.01
13,U9G G21U G40A,0.03
14,U9G C13G C45U,0.16
15,C10A A12G G21C,0.01
16,U9C G35U U43C C45G,0.02
17,U9G A11U G22C A26C G29A C31A,0.01
18,C10A A14C A25U,0.01
19,U9G A16G G29A,0.05
20,U9C G35A C45G,0.01
21,C10A A16C U43C,0.03
22,U9G G17U G19C G21C,0
23,U9C G19U A25U G44U,0.01
24,U9G G17C A39C,0.01

row,Variant,self-cleavage
1,C10A A14G A16G C31U A39U,0.01
2,C10A C13G G17A,0.04
3,U9C G29U C31U,0.01
4,U9G U43C G44A,0.06
5,U9G C10U G30C,0.04
6,U9G C15A U28G G40C,0.04
7,U9C U20C G21U A25C C37U C45A,0
8,U9G C10G G36A C46A,0
9,C10A A12G C18U G36C A41G,0
10,C10A A12C G27A U28A G30A G35C G36A,0.01
11,U9C G22C A25G,0.01
12,U9G C10A C23U G33U,0.03
13,C10A A14C G33U C46A,0.02
14,U9G C23U A24C A25C,0.01
15,U9C U28G G33U,0.01
16,U9G G35A U43G,0.02
17,U9G G17U G27C,0.01
18,U9G C10U G27C G35U A41G U43A,0.02
19,U9C G27U G30A C37A C45A,0.01
20,C10A A14G G35C,0
21,C10A C13U A25U A41G,0
22,U9G A16U C37A,0.05
23,C10A A24G A26U A39U,0.28
24,U9G C10U C37U,0.02

row,Variant,self-cleavage
1,U9G C10A C15G U34G A39G,0.01
2,C10A A25U G30U U32A,0.04
3,U9G G17C G22U C23A G29U U34C,0.11
4,U9G A25C U28C G29U,0.03
5,C10A C18U G35C U38C,0.02
6,U9C U43A C45G,0.01
7,U9G A11U G17U G30U,0.02
8,U9G A11C G29A C31U C37U C42A,0
9,U9C G27A C31G,0.03
10,C10A A12C G19U U32A C46G,0.01
11,C10A A11U U34C,0.03
12,U9C G21A C37G,0.08
13,U9G A12C C46U,0.02
14,C10A A26U U43C,0.02
15,C10A A25C A41U,0.02
16,C10A A16U A26U C31U,0.01
17,U9G C10A C46A,0.02
18,U9G A24U U28C,0.07
19,C10A C18G G36C A41G,0.03
20,C10A A11C C42G,0.04
21,U9C G19A G22C U28A,0.02
22,C10A A16C G27U,0.07
23,C10A A11C G19C U28C U32A G36A,0.01
24,C10A A16G U34A G40C,0

row,Variant,self-cleavage
1,C10A C15U A16C G17A C46A,0.02
2,U9C G21C G35A,0.09
3,C10A A14C G29U,0.02
4,C10A C13U C15U A26G,0.02
5,U9C U34A C42A,0.01
6,C10A C18G G22A C46A,0.27
7,U9C G33A C37A G40C,0.01
8,U9G A16U G19A C31A,0.01
9,C10A C15A A25C C42A,0.01
10,C10A C18U C46A,0.07
11,U9G C13A G30A C37G,0.11
12,U9G C15G A24U,0.07
13,U9G C15G A24C,0.17
14,C10A A11G A25C U28G G36C,0.01
15,C10A A24C U38G U43C,0.01
16,U9G C10G C46G,0.06
17,C10A A16G C18A U28A C31G G35C,0.02
18,U9G A11G G40U U43A,0
19,U9C G17U G19U U20C G33A A39U,0.01
20,U9G C18A U20C,0.05
21,C10A C15A C18G A24C,0
22,U9G C23A A25G A26C,0.17
23,U9C C23A G40U,0.01
24,U9C C18A C46A,0.03

row,Variant,self-cleavage
1,U9C G27C C37U,0.02
2,U9G C10A G40C,0.02
3,C10A A16C G19A G30A U38C,0.02
4,U9C G21C G35A C45G,0.01
5,U9G C15U G29A C42U,0.08
6,U9C G35C A41U,0.04
7,C10A A24U A39G U43G,0.04
8,U9G A25U U38G,0
9,U9G A12C A24G C37U,0
10,C10A C13U G17A,0.03
11,U9C G27A U32C G33C,0.01
12,U9G A12C G19U U20A A26C,0.02
13,U9G G21U A25U,0.09
14,U9C U20C U28A G30U G40A U43A,0
15,C10A C13U C23A G30U C31A U32A,0.02
16,C10A A14G U20G,0
17,C10A C18A G21U G30A G33U,0
18,U9G U20G C37G,0.03
19,U9G A25C A39G,0.03
20,C10A A12G G35U,0.01
21,C10A C15U G21A,0.02
22,U9G A26U G35U,0
23,C10A A25G G36A,0.02
